Measured values published in PubChem BioAssay AID1460 (National Center for Advancing Translational Sciences (NCATS), 2008).
Screen size: about 270,000 compounds; about 5,800 (2.1%) were called active. Inconclusive results, whose numbers are uncertain, are shown with a selection of clear calls. The call rests on the fitted dose curve; in most records, active means well fitted inhibition curve with a large enough effect; inconclusive means small, poorly fitted or top-dose-only effect; inactive means flat fitted curve, though single readings scatter. Potencies of inconclusive entries are doubtful fits and often do not repeat.

Target: Microtubule-associated protein tau (Homo sapiens) (UniProt P10636)
Test: qHTS for Inhibitors of Tau Fibril Formation, Thioflavin T Binding; further: nearly all actives have a fitted effect of over 55% in size
Details: recombinant tau K18 P301L (four-repeat tau fragment), heparin-induced fibrillization, ThT fluorescence; series mostly up to 57.4 µM
Method in brief: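 Aggregation was driven by heparin (20 uM final) acting on recombinant tau […] bearing P301L in 100 mM sodium acetate pH 7; fibrils were detected with Thioflavin T.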
On the % scale 0 is the no-effect control and ±100 the full control effect; potency means the concentration at half of the fitted maximal effect; tags describe the fitted curve by direction and shape.

Sequence of UniProt P10636 (P10636 whole entry, looked up): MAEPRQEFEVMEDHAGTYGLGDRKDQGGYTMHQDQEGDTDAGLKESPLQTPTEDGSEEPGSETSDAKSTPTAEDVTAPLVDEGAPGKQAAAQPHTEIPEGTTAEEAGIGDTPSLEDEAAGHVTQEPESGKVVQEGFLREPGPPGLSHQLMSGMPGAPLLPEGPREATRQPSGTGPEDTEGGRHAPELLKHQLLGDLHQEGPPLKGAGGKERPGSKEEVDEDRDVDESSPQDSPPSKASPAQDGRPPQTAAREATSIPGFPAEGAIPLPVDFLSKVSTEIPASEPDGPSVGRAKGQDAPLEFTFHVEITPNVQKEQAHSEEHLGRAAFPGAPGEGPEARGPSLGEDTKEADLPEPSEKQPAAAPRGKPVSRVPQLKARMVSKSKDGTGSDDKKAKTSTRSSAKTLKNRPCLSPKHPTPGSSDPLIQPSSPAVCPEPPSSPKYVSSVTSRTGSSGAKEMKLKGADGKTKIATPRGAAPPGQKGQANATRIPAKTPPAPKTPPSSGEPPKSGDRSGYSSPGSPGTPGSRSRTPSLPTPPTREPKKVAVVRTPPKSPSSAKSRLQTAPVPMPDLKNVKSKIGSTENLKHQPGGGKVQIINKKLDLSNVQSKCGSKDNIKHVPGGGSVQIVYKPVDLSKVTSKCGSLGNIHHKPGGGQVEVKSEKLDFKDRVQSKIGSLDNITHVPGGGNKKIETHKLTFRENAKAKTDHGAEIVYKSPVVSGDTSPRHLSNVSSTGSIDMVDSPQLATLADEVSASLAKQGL

Row | Structure (SMILES) | Potency | activity, negative = inhibition
1 | N#CC1=C(N)Oc2n[nH]c(-c3cccs3)c2C1c1cccs1 (stereo not given) | active: 28.2 µM | –
2 | COc1ccc(N/C=C/C(=O)c2sc(-c3ccccc3)nc2C)cc1 | active: 2.51 µM | –
3 | CCOC(=O)N1CCc2c(sc3c2c(=O)n(-c2ccc(Cl)cc2)c(=O)n3Cc2cccc(OC)c2)C1 | inactive | –
4 | COc1ccc(OC)c(C2=Nn3c(nnc3-c3cc(OC)c(OC)c(OC)c3)SC2)c1 | inconclusive: 12.6 µM [inhibitor, partial curve, poor fit] | –
5 | COc1cc(/C=N/NC(=O)CSc2ccccn2)ccc1O | inactive | –
6 | CCOC(=O)c1noc2ncnc(N3CCN(c4cccc(Cl)c4)CC3)c12 | inactive | –
7 | COc1ccc2[nH]c(=O)c(CN(Cc3ccco3)Cc3nnnn3Cc3ccccc3)cc2c1 | inactive | –
8 | CCC(C)Nc1nc(SC(C(C)=O)C(C)=O)nc(N(C)C)n1 (stereo not given) | inactive | –
9 | Cc1ccc(-c2nc(CN(C)Cc3cccc4cnccc34)c(C)o2)s1 | inactive | –
10 | O=Cc1ccc(-c2ccc([N+](=O)[O-])cc2Cl)o1 | inconclusive: 15.8 µM [inhibitor, partial curve] | –
11 | Cc1ccc(C(=O)CSc2n[nH]c(C)n2)cc1 | inactive | –
12 | CCOC(=O)N1CCN(Cc2c(O)ccc3ccccc23)CC1 | inconclusive: 3.16 µM [inhibitor, full curve] | –
13 | O=C1C2C3C=CC(C4CC34)C2C(=O)N1/N=C/c1ccc(-c2ccc([N+](=O)[O-])cc2)o1 (stereo not given) | inconclusive: 2.24 µM [inhibitor, full curve, poor fit] | –
14 | CCn1c(=O)cc(SCC(=O)NCCc2cccc(C)c2)c2ccccc21 | inconclusive: 22.4 µM [inhibitor, single point] | –
15 | O=C(CSc1nnc(Cc2cccs2)n1Cc1ccco1)Nc1ccc(Br)cc1 | inconclusive: 20 µM [inhibitor, single point] | –
16 | CCc1ccc(NC(=O)Cc2csc(COc3cccc(C)c3)n2)cc1 | inactive | –
17 | C=CCC1(CC=C)CCCN1Cc1nc(COc2ccccc2)no1 | inconclusive: 0.0355 µM [inhibitor, full curve, poor fit] | –
18 | CCCCCSc1nnc2c(n1)OC(CC)Nc1ccc(Br)cc1-2 (stereo not given) | inconclusive: 17.8 µM [inhibitor, partial curve] | –
19 | COc1ccc(/C=N/Nc2ccc(C(F)(F)F)cc2[N+](=O)[O-])cc1 | inconclusive: 0.398 µM [inhibitor, full curve] | –
20 | COc1ccc(NC(=O)Nc2cccc(OCc3cc(=O)n4cccc(C)c4n3)c2)c(OC)c1 | inconclusive: 3.16 µM [inhibitor, full curve] | –
21 | COCCn1c(C)cc(O)c(C(c2ccc(Cl)cc2)N2CCN(c3ccccc3)CC2)c1=O (stereo not given) | inactive | –
22 | CCOC(=O)N1CCN(C(=O)Nc2sc3nc4n(c(=O)c3c2C)CCC(C)CC4)CC1 (stereo not given) | inconclusive: 31.6 µM [inhibitor, partial curve] | –
23 | C/C(=N\NC(=O)c1ccncc1)C12CC3CC(CC(C3)C1)C2 | inactive | –
24 | NC(=O)COC(=O)c1cccc2c1-c1ccccc1C2=O | inactive | –

Row | Structure (SMILES) | Potency | activity, negative = inhibition
25 | COc1cc(NC(=O)CNC(=O)Cn2ccc3ccccc3c2=O)cc(OC)c1OC | inconclusive: 0.0251 µM [inhibitor, full curve, poor fit] | –
26 | CC(C)c1ccc(Nc2ncnc3c2nc2n3CCCC2)cc1 | inactive | –
27 | CCOC(=O)N1CCC2(CC1)C(C#N)=C(N)Oc1c2sc2nc(C)cc(C)c12 | inconclusive: 17.8 µM [inhibitor, single point] | –
28 | O=C(c1ccc(Cl)cc1)c1ccc(CN2C(=O)c3ccccc3C2=O)o1 | inactive | –
29 | COc1ccc(COc2cc(-c3cccc(OC)c3)nc3ccc(NC(=O)c4ccc(C)cc4)cc23)cc1 | inconclusive: 17.8 µM [inhibitor, single point] | –
30 | O=C(CCCn1c(=O)c2ccccc2n(CC(=O)Nc2cccc(Cl)c2)c1=O)NCc1ccc2c(c1)OCO2 | inconclusive: 14.1 µM [activator, partial curve, poor fit] | –
31 | CC(C)(C)n1ncc(Oc2ccccc2[N+](=O)[O-])c(Cl)c1=O | inactive | –
32 | Cc1cc(C)cc(-n2ccnc2SCC(=O)Nc2ccc(C)cc2C)c1 | inactive | –
33 | Cc1cc(NC(=O)c2ccc(-c3ccccc3F)o2)no1 | inconclusive: 8.91 µM [inhibitor, partial curve] | –
34 | C=C(C)C(O)/C=C/C=C/c1ccccc1 (stereo not given) | – | inactive: -19.5% [at 11.5 µM]
35 | COc1ccc(C(=O)NCC(c2ccc(N(C)C)cc2)N2CCCC2)cc1 (stereo not given) | inconclusive: 12.6 µM [inhibitor, partial curve, poor fit] | –
36 | CCOc1cc(C2C(C#N)=C(N)SC(N)=C2C#N)ccc1OCCN1CCOCC1 | active: 25.1 µM | –
37 | CC(C)[C@H](NS(=O)(=O)c1ccccc1)C(=O)OCC(=O)Nc1ccc2c(c1)OCO2 | inactive | –
38 | Cc1cc(NS(=O)(=O)c2ccc(Nc3nc(-c4sc(NC(=O)c5ccccc5)nc4C)cs3)cc2)no1 | active: 20 µM | –
39 | COc1ccc(N/N=C/c2c(C(=O)O)ccc3ccccc23)cc1 | inconclusive: 2.82 µM [inhibitor, partial curve] | –
40 | CCn1c(SCC(=O)Nc2sc3c(c2C#N)CCCC3)nnc1-c1ccncc1 | inconclusive: 22.4 µM [inhibitor, partial curve] | –
41 | Cc1ccc(OCCCOc2cccc3cccnc23)cc1C | inconclusive: 22.4 µM [inhibitor, partial curve, poor fit] | –
42 | O=C(Nc1cccc(-c2nc3ccccc3s2)c1)c1cccs1 | inconclusive: 2.24 µM [inhibitor, single point] | –
43 | O=[N+]([O-])c1cc(C(F)(F)F)ccc1Sc1ccccn1 | inactive | –
44 | COc1ccc(NCc2nnc(SCC(=O)Nc3ccc(OC)cc3OC)o2)cc1 | inconclusive: 15.8 µM [inhibitor, partial curve] | –
45 | Cc1ccc2c(c1)sc[n+]2Cc1ccccc1 | inconclusive: 25.1 µM [inhibitor, single point] | –
46 | COC(=O)c1cnn(-c2ccc(C(=O)Nc3ccc(OC(F)(F)F)cc3)cc2)c1N | inconclusive: 10 µM [inhibitor, partial curve] | –
47 | COc1ccccc1S(=O)(=O)Cc1ccc(C(=O)N2CCN(c3cccc(Cl)c3)CC2)o1 | inconclusive: 17.8 µM [inhibitor, partial curve] | –
48 | COc1ccc(/C=C/C(=O)c2ccc(OC)cc2OC)cc1 | inconclusive: 35.5 µM [inhibitor, single point] | –

Row | Structure (SMILES) | Potency | activity, negative = inhibition
49 | CCCCN(CC)C(=O)c1ccccc1Oc1ccccc1 | inconclusive: 14.1 µM [inhibitor, partial curve, poor fit] | –
50 | OCC1(Cc2ccccc2)CCN(Cc2cnc(-c3ccc(Cl)cc3)nc2)CC1 | inconclusive: 12.6 µM [inhibitor, partial curve] | –
51 | Cc1ccc(N2C(=O)[C@@H]3C(C(=O)CN4C(=O)c5ccccc5C4=O)=NN[C@@H]3C2=O)c(C)c1 | inactive | –
52 | O=C1CN(C(=O)c2cc3ccccc3oc2=O)C(c2ccc(F)cc2)c2cc(Br)ccc2N1 (stereo not given) | inconclusive: 28.2 µM [inhibitor, partial curve, poor fit] | –
53 | CCOc1cc(CNc2ccccc2SC)ccc1O | inconclusive: 14.1 µM [inhibitor, partial curve] | –
54 | CNc1nc(OC)nc(N(C#N)CN2C(=O)c3ccccc3S2(=O)=O)n1 | inconclusive: 15.8 µM [inhibitor, partial curve] | –
55 | N#C/C(=C1/C(=O)Nc2ccc(Br)cc21)c1ccccn1 | active: 28.2 µM | –
56 | COc1cc(-c2csc(CCn3nc(C)cc3C)n2)cc(OC)c1OC | inconclusive: 35.5 µM [inhibitor, partial curve] | –
57 | COc1ccc(/C=N/Nc2nc(=O)[nH]nc2C)cc1[N+](=O)[O-] | inconclusive: 6.31 µM [inhibitor, partial curve, poor fit] | –
58 | CC(=O)CSc1nc2ccc(Nc3nc(N4CCOCC4)nc(N4CCOCC4)n3)cc2s1 | inconclusive: 22.4 µM [inhibitor, partial curve] | –
59 | Cc1nnc(NC(=O)CSc2nnc3c(n2)[nH]c2ccccc23)s1 | inconclusive: 11.2 µM [inhibitor, partial curve] | –
60 | CC(=O)Nc1cccc(NC(=O)c2sc3ncn(CC(=O)N4CCCCC4)c(=O)c3c2C)c1 | inactive | –
61 | CC1=NN(c2ccc(C)c(C)c2)C(=O)/C1=C/c1ccc2c(c1)n(C)c(=O)n2C | inactive | –
62 | CCC(C)Oc1ccccc1C1CC(=O)NC2=C1C(=O)CCC2 (stereo not given) | inactive | –
63 | Cn1ncc2c(c(SCc3ccc(Cl)cc3Cl)nn2C)c1=O | inconclusive: 39.8 µM [inhibitor, single point] | –
64 | c1ccc(Nc2ncnc3ccc(-c4ccc5c(c4)OCO5)cc23)cc1 | inactive | –
65 | CCc1nc(OCc2ccco2)c2sc3nc4c(cc3c2n1)COC(C)(C)C4 | inconclusive: 39.8 µM [inhibitor, single point] | –
66 | CN(C)c1ccc(NC(=O)CN2C(=O)c3ccccc3Sc3ccc(C(=O)N4CCCC4)cc32)cc1 | inconclusive: 28.2 µM [inhibitor, single point] | –
67 | CCN(C(=O)c1cccn(Cc2ccccc2C)c1=O)c1ccccc1 | inactive | –
68 | COc1cc(C)ccc1OCCCOc1ccccc1Br | inconclusive: 14.1 µM [inhibitor, partial curve, poor fit] | –
69 | CCn1ccc2cc(S(=O)(=O)N3CCC(C(=O)NCc4ccc(OC)cc4)CC3)ccc21 | inactive | –
70 | CCOC(=O)Cc1csc(NC(=O)c2cc(=O)c3ccccc3o2)n1 | inconclusive: 10 µM [inhibitor, partial curve, poor fit] | –
